Results published in patent publication US20210238308A1 (Chugai, published 2021).

T1: human TRIM21 PRYSPRY domain with N-terminal 6xHis tag (human)
T1 construct: Expressed from pET28a in E. coli; also called hTRIM21
T1 chain: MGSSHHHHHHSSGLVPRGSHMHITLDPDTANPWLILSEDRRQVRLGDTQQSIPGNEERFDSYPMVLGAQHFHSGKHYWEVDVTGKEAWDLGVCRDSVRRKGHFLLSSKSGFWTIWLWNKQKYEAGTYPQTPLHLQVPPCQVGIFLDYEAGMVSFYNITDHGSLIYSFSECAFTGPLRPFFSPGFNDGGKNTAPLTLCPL


Target: T1, human TRIM21 PRYSPRY domain with …
Experiment: SPR, Ab captured on Protein L, hTRIM21 12.5-200 nM

Binder | Kd | koff | kon
3D8VH-G1m/hT4VL-KT0.Avi I253L (antibody, human IgG1, kappa) heavy: EVQLVESGGGLVQPGGSLRLSCAASGYTFTSYVMHWVRQAPGKGLEWVSAINPYNDGNYYADSVKGRFTISRDNSRKTLYLQMNSLRAEDTAVYYCARGAYKRGYAMDYWGQGTTVTVSSASTKGPSVFPLAPSSKSTSGGTAALGCLVKDYFPEPVTVSWNSGALTSGVHTFPAVLQSSGLYSLSSVVTVPSSSLGTQTYICNVNHKPSNTKVDKKV[human IgG1 Fc with I253L (EU numbers) omitted here] light: [about 200 residues omitted here]GGGGSGLNDIFEAQKIEWHE | 834 pM | 0.00155 s⁻¹ | 1.86e+06 M⁻¹ s⁻¹
3D8VH-G1m/hT4VL-KT0.Avi I253L.L432P (antibody, human IgG1, kappa) heavy: EVQLVESGGGLVQPGGSLRLSCAASGYTFTSYVMHWVRQAPGKGLEWVSAINPYNDGNYYADSVKGRFTISRDNSRKTLYLQMNSLRAEDTAVYYCARGAYKRGYAMDYWGQGTTVTVSSASTKGPSVFPLAPSSKSTSGGTAALGCLVKDYFPEPVTVSWNSGALTSGVHTFPAVLQSSGLYSLSSVVTVPSSSLGTQTYICNVNHKPSNTKVDKKV[human IgG1 Fc with I253L L432P (EU numbers) omitted here] light: [about 200 residues omitted here]GGGGSGLNDIFEAQKIEWHE | 1070 pM | 0.00138 s⁻¹ | 1.29e+06 M⁻¹ s⁻¹
3D8VH-G1m/hT4VL-KT0.Avi I253M (antibody, human IgG1, kappa) heavy: EVQLVESGGGLVQPGGSLRLSCAASGYTFTSYVMHWVRQAPGKGLEWVSAINPYNDGNYYADSVKGRFTISRDNSRKTLYLQMNSLRAEDTAVYYCARGAYKRGYAMDYWGQGTTVTVSSASTKGPSVFPLAPSSKSTSGGTAALGCLVKDYFPEPVTVSWNSGALTSGVHTFPAVLQSSGLYSLSSVVTVPSSSLGTQTYICNVNHKPSNTKVDKKV[human IgG1 Fc with I253M (EU numbers) omitted here] light: [about 200 residues omitted here]GGGGSGLNDIFEAQKIEWHE | 4560 pM | 0.0122 s⁻¹ | 2.66e+06 M⁻¹ s⁻¹
3D8VH-G1m/hT4VL-KT0.Avi I253L.M428F (antibody, human IgG1, kappa) heavy: EVQLVESGGGLVQPGGSLRLSCAASGYTFTSYVMHWVRQAPGKGLEWVSAINPYNDGNYYADSVKGRFTISRDNSRKTLYLQMNSLRAEDTAVYYCARGAYKRGYAMDYWGQGTTVTVSSASTKGPSVFPLAPSSKSTSGGTAALGCLVKDYFPEPVTVSWNSGALTSGVHTFPAVLQSSGLYSLSSVVTVPSSSLGTQTYICNVNHKPSNTKVDKKV[human IgG1 Fc with I253L M428F (EU numbers) omitted here] light: [about 200 residues omitted here]GGGGSGLNDIFEAQKIEWHE | 303 pM | 0.000536 s⁻¹ | 1.77e+06 M⁻¹ s⁻¹
3D8VH-G1m/hT4VL-KT0.Avi I253M.N315Q (antibody, human IgG1, kappa) heavy: EVQLVESGGGLVQPGGSLRLSCAASGYTFTSYVMHWVRQAPGKGLEWVSAINPYNDGNYYADSVKGRFTISRDNSRKTLYLQMNSLRAEDTAVYYCARGAYKRGYAMDYWGQGTTVTVSSASTKGPSVFPLAPSSKSTSGGTAALGCLVKDYFPEPVTVSWNSGALTSGVHTFPAVLQSSGLYSLSSVVTVPSSSLGTQTYICNVNHKPSNTKVDKKV[human IgG1 Fc with I253M N315Q (EU numbers) omitted here] light: [about 200 residues omitted here]GGGGSGLNDIFEAQKIEWHE | 1350 pM | 0.00249 s⁻¹ | 1.85e+06 M⁻¹ s⁻¹
3D8VH-G1m/hT4VL-KT0.Avi I253M.M428F (antibody, human IgG1, kappa) heavy: EVQLVESGGGLVQPGGSLRLSCAASGYTFTSYVMHWVRQAPGKGLEWVSAINPYNDGNYYADSVKGRFTISRDNSRKTLYLQMNSLRAEDTAVYYCARGAYKRGYAMDYWGQGTTVTVSSASTKGPSVFPLAPSSKSTSGGTAALGCLVKDYFPEPVTVSWNSGALTSGVHTFPAVLQSSGLYSLSSVVTVPSSSLGTQTYICNVNHKPSNTKVDKKV[human IgG1 Fc with I253M M428F (EU numbers) omitted here] light: [about 200 residues omitted here]GGGGSGLNDIFEAQKIEWHE | 1580 pM | 0.00356 s⁻¹ | 2.25e+06 M⁻¹ s⁻¹
3D8VH-G1m/hT4VL-KT0.Avi I253L.D312H (antibody, human IgG1, kappa) heavy: EVQLVESGGGLVQPGGSLRLSCAASGYTFTSYVMHWVRQAPGKGLEWVSAINPYNDGNYYADSVKGRFTISRDNSRKTLYLQMNSLRAEDTAVYYCARGAYKRGYAMDYWGQGTTVTVSSASTKGPSVFPLAPSSKSTSGGTAALGCLVKDYFPEPVTVSWNSGALTSGVHTFPAVLQSSGLYSLSSVVTVPSSSLGTQTYICNVNHKPSNTKVDKKV[human IgG1 Fc with I253L D312H (EU numbers) omitted here] light: [about 200 residues omitted here]GGGGSGLNDIFEAQKIEWHE | 421 pM | 0.000839 s⁻¹ | 1.99e+06 M⁻¹ s⁻¹

More lines, in order of falling Kd, values ahead:

Kd | koff | kon | Binder
1660 pM | 0.00253 s⁻¹ | 1.53e+06 M⁻¹ s⁻¹ | 3D8VH-G1m/hT4VL-KT0.Avi I253M.L432P (antibody, human IgG1, kappa) heavy: EVQLVESGGGLVQPGGSLRLSCAASGYTFTSYVMHWVRQAPGKGLEWVSAINPYNDGNYYADSVKGRFTISRDNSRKTLYLQMNSLRAEDTAVYYCARGAYKRGYAMDYWGQGTTVTVSSASTKGPSVFPLAPSSKSTSGGTAALGCLVKDYFPEPVTVSWNSGALTSGVHTFPAVLQSSGLYSLSSVVTVPSSSLGTQTYICNVNHKPSNTKVDKKV[human IgG1 Fc with I253M L432P (EU numbers) omitted here] light: [about 200 residues omitted here]GGGGSGLNDIFEAQKIEWHE
1630 pM | 0.00419 s⁻¹ | 2.57e+06 M⁻¹ s⁻¹ | 3D8VH-G1m/hT4VL-KT0.Avi I253M.D312H (antibody, human IgG1, kappa) heavy: EVQLVESGGGLVQPGGSLRLSCAASGYTFTSYVMHWVRQAPGKGLEWVSAINPYNDGNYYADSVKGRFTISRDNSRKTLYLQMNSLRAEDTAVYYCARGAYKRGYAMDYWGQGTTVTVSSASTKGPSVFPLAPSSKSTSGGTAALGCLVKDYFPEPVTVSWNSGALTSGVHTFPAVLQSSGLYSLSSVVTVPSSSLGTQTYICNVNHKPSNTKVDKKV[human IgG1 Fc with I253M D312H (EU numbers) omitted here] light: [about 200 residues omitted here]GGGGSGLNDIFEAQKIEWHE
1300 pM | 0.00235 s⁻¹ | 1.81e+06 M⁻¹ s⁻¹ | 3D8VH-G1m/hT4VL-KT0.Avi I253M.N315M (antibody, human IgG1, kappa) heavy: EVQLVESGGGLVQPGGSLRLSCAASGYTFTSYVMHWVRQAPGKGLEWVSAINPYNDGNYYADSVKGRFTISRDNSRKTLYLQMNSLRAEDTAVYYCARGAYKRGYAMDYWGQGTTVTVSSASTKGPSVFPLAPSSKSTSGGTAALGCLVKDYFPEPVTVSWNSGALTSGVHTFPAVLQSSGLYSLSSVVTVPSSSLGTQTYICNVNHKPSNTKVDKKV[human IgG1 Fc with I253M N315M (EU numbers) omitted here] light: [about 200 residues omitted here]GGGGSGLNDIFEAQKIEWHE
806 pM | 0.000884 s⁻¹ | 1.1e+06 M⁻¹ s⁻¹ | 3D8VH-G1m/hT4VL-KT0.Avi I253L.Y436T (antibody, human IgG1, kappa) heavy: EVQLVESGGGLVQPGGSLRLSCAASGYTFTSYVMHWVRQAPGKGLEWVSAINPYNDGNYYADSVKGRFTISRDNSRKTLYLQMNSLRAEDTAVYYCARGAYKRGYAMDYWGQGTTVTVSSASTKGPSVFPLAPSSKSTSGGTAALGCLVKDYFPEPVTVSWNSGALTSGVHTFPAVLQSSGLYSLSSVVTVPSSSLGTQTYICNVNHKPSNTKVDKKV[human IgG1 Fc with I253L Y436T (EU numbers) omitted here] light: [about 200 residues omitted here]GGGGSGLNDIFEAQKIEWHE
450 pM | 0.000886 s⁻¹ | 1.97e+06 M⁻¹ s⁻¹ | 3D8VH-G1m/hT4VL-KT0.Avi I253L.T437D (antibody, human IgG1, kappa) heavy: EVQLVESGGGLVQPGGSLRLSCAASGYTFTSYVMHWVRQAPGKGLEWVSAINPYNDGNYYADSVKGRFTISRDNSRKTLYLQMNSLRAEDTAVYYCARGAYKRGYAMDYWGQGTTVTVSSASTKGPSVFPLAPSSKSTSGGTAALGCLVKDYFPEPVTVSWNSGALTSGVHTFPAVLQSSGLYSLSSVVTVPSSSLGTQTYICNVNHKPSNTKVDKKV[human IgG1 Fc with I253L T437D (EU numbers) omitted here] light: [about 200 residues omitted here]GGGGSGLNDIFEAQKIEWHE
409 pM | 0.000728 s⁻¹ | 1.78e+06 M⁻¹ s⁻¹ | 3D8VH-G1m/hT4VL-KT0.Avi I253L.N315M (antibody, human IgG1, kappa) heavy: EVQLVESGGGLVQPGGSLRLSCAASGYTFTSYVMHWVRQAPGKGLEWVSAINPYNDGNYYADSVKGRFTISRDNSRKTLYLQMNSLRAEDTAVYYCARGAYKRGYAMDYWGQGTTVTVSSASTKGPSVFPLAPSSKSTSGGTAALGCLVKDYFPEPVTVSWNSGALTSGVHTFPAVLQSSGLYSLSSVVTVPSSSLGTQTYICNVNHKPSNTKVDKKV[human IgG1 Fc with I253L N315M (EU numbers) omitted here] light: [about 200 residues omitted here]GGGGSGLNDIFEAQKIEWHE
280 pM | 0.000561 s⁻¹ | 2e+06 M⁻¹ s⁻¹ | 3D8VH-G1m/hT4VL-KT0.Avi I253L.N315Q (antibody, human IgG1, kappa) heavy: EVQLVESGGGLVQPGGSLRLSCAASGYTFTSYVMHWVRQAPGKGLEWVSAINPYNDGNYYADSVKGRFTISRDNSRKTLYLQMNSLRAEDTAVYYCARGAYKRGYAMDYWGQGTTVTVSSASTKGPSVFPLAPSSKSTSGGTAALGCLVKDYFPEPVTVSWNSGALTSGVHTFPAVLQSSGLYSLSSVVTVPSSSLGTQTYICNVNHKPSNTKVDKKV[human IgG1 Fc with I253L N315Q (EU numbers) omitted here] light: [about 200 residues omitted here]GGGGSGLNDIFEAQKIEWHE
245 pM | 0.000618 s⁻¹ | 2.52e+06 M⁻¹ s⁻¹ | 3D8VH-G1m/hT4VL-KT0.Avi I253L.Q438E (antibody, human IgG1, kappa) heavy: EVQLVESGGGLVQPGGSLRLSCAASGYTFTSYVMHWVRQAPGKGLEWVSAINPYNDGNYYADSVKGRFTISRDNSRKTLYLQMNSLRAEDTAVYYCARGAYKRGYAMDYWGQGTTVTVSSASTKGPSVFPLAPSSKSTSGGTAALGCLVKDYFPEPVTVSWNSGALTSGVHTFPAVLQSSGLYSLSSVVTVPSSSLGTQTYICNVNHKPSNTKVDKKV[human IgG1 Fc with I253L Q438E (EU numbers) omitted here] light: [about 200 residues omitted here]GGGGSGLNDIFEAQKIEWHE
